ChEMBL document CHEMBL1961873, “Compounds: GSK PKIS; Assays: Nanosyn kinase panel” (2012)
For some of these results: Most of the strong results are listed elsewhere, so they are rarer here than in the full data. The list shows a part of the results, in another mix than the full data.

What was measured:
[1] = molecular target: RAC-alpha serine/threonine-protein kinase (Homo sapiens) (UniProt P31749); settings: at 0.1 µM
[2] = molecular target: RAC-alpha serine/threonine-protein kinase (Homo sapiens) (UniProt P31749); settings: at 1 µM
[3] = molecular target: RAC-beta serine/threonine-protein kinase (Homo sapiens) (UniProt P31751); settings: at 0.1 µM
[4] = molecular target: RAC-beta serine/threonine-protein kinase (Homo sapiens) (UniProt P31751); settings: at 1 µM
[5] = molecular target: RAC-gamma serine/threonine-protein kinase (Homo sapiens) (UniProt Q9Y243); settings: at 0.1 µM
[6] = molecular target: RAC-gamma serine/threonine-protein kinase (Homo sapiens) (UniProt Q9Y243); settings: at 1 µM
[7] = molecular target: G protein-coupled receptor kinase 6 (Homo sapiens) (UniProt P43250); settings: at 0.1 µM
[8] = molecular target: G protein-coupled receptor kinase 6 (Homo sapiens) (UniProt P43250); settings: at 1 µM
[9] = molecular target: T1, Rhodopsin kinase GRK7 (Homo sapiens) (UniProt Q8WTQ7); settings: at 0.1 µM
T1 sequence (whole entry): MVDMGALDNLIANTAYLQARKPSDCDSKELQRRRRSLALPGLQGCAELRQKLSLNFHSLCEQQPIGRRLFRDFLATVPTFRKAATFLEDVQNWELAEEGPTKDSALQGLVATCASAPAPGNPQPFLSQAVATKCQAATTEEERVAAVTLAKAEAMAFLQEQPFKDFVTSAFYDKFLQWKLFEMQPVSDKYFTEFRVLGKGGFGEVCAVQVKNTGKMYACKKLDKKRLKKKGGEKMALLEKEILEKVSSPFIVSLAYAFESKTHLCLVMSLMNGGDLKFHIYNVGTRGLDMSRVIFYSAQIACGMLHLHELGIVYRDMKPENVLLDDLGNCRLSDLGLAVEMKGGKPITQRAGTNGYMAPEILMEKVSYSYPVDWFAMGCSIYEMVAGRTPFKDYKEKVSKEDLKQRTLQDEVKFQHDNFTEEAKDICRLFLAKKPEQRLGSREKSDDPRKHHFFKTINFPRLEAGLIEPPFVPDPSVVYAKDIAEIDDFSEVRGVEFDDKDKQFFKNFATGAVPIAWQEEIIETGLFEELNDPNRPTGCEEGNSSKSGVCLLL

[10] = molecular target: T1, Rhodopsin kinase GRK7 (Homo sapiens); settings: at 1 µM
[11] = molecular target: Serine/threonine-protein kinase MRCK alpha (Homo sapiens) (UniProt Q5VT25); settings: at 0.1 µM
[12] = molecular target: Serine/threonine-protein kinase MRCK alpha (Homo sapiens) (UniProt Q5VT25); settings: at 1 µM
[13] = molecular target: Serine/threonine-protein kinase MRCK beta (Homo sapiens) (UniProt Q9Y5S2); settings: at 0.1 µM
[14] = molecular target: Serine/threonine-protein kinase MRCK beta (Homo sapiens) (UniProt Q9Y5S2); settings: at 1 µM
[15] = molecular target: Ribosomal protein S6 kinase alpha-5 (Homo sapiens) (UniProt O75582); settings: at 0.1 µM
[16] = molecular target: Ribosomal protein S6 kinase alpha-5 (Homo sapiens) (UniProt O75582); settings: at 1 µM
[17] = molecular target: Ribosomal protein S6 kinase alpha-4 (Homo sapiens) (UniProt O75676); settings: at 0.1 µM
[18] = molecular target: Ribosomal protein S6 kinase alpha-4 (Homo sapiens) (UniProt O75676); settings: at 1 µM
[19] = molecular target: Ribosomal protein S6 kinase beta-1 (Homo sapiens) (UniProt P23443); settings: at 0.1 µM
[20] = molecular target: Ribosomal protein S6 kinase beta-1 (Homo sapiens) (UniProt P23443); settings: at 1 µM

Sequence of UniProt P31751 (P31751 whole entry): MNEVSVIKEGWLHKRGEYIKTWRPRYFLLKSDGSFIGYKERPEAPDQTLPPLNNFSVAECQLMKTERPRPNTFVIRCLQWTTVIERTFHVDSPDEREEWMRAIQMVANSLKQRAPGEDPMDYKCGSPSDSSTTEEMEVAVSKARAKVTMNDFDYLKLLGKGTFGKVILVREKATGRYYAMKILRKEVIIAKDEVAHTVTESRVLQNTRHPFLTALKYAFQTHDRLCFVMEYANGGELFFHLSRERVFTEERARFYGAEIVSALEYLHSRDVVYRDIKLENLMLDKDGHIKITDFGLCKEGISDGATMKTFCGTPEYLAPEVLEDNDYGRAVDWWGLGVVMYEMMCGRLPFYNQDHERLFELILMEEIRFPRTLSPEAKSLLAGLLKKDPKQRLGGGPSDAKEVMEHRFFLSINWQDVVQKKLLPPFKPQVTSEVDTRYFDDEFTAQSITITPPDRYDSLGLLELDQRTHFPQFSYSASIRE
Sequence of UniProt Q9Y243 (Q9Y243 whole entry): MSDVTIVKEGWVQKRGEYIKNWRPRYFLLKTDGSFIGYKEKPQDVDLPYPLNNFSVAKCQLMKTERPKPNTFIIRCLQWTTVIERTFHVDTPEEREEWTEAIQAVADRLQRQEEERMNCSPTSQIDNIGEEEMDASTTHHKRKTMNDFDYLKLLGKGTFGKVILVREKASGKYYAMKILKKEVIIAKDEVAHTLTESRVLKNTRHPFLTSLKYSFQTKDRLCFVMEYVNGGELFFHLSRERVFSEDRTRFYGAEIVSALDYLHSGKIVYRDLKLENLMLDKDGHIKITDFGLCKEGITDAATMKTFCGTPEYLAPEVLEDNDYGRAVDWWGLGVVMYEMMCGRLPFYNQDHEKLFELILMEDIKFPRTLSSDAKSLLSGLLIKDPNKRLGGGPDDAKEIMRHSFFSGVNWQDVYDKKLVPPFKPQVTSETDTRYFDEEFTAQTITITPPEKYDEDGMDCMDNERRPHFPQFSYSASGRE
Sequence of UniProt P31749 (P31749 whole entry): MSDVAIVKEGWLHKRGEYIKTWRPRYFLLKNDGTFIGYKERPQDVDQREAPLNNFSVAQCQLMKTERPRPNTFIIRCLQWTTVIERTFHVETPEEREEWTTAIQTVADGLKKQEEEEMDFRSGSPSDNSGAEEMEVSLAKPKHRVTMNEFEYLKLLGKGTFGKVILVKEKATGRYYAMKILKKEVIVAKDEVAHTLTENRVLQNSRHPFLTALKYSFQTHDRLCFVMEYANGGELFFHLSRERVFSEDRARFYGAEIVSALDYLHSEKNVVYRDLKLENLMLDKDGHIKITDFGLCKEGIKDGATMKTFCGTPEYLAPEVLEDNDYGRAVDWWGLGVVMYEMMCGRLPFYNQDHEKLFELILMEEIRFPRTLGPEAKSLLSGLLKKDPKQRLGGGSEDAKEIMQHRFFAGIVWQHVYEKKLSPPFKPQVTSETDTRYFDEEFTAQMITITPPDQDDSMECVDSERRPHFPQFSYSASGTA
Sequence of UniProt O75582 (O75582 whole entry, looked up): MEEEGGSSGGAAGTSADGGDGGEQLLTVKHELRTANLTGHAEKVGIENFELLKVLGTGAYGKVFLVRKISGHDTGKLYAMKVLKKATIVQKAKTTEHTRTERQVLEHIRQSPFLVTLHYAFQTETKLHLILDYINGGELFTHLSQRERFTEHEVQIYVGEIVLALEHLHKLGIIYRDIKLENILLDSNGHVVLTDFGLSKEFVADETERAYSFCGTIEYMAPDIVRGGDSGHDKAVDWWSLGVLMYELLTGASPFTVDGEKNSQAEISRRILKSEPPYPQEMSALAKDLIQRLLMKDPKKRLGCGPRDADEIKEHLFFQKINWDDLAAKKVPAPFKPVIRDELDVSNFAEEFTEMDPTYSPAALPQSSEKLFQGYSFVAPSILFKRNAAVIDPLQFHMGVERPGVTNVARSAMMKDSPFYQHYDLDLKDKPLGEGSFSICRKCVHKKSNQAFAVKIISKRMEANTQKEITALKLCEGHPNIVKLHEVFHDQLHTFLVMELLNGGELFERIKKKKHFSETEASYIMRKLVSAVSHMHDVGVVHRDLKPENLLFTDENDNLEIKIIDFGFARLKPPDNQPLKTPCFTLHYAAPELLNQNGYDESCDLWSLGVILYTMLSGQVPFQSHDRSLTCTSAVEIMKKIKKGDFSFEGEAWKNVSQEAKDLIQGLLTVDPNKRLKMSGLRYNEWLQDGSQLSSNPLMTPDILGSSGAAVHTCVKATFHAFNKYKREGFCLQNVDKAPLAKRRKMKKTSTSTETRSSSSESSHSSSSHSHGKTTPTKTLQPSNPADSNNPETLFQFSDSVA
Sequence of UniProt Q5VT25 (Q5VT25 whole entry): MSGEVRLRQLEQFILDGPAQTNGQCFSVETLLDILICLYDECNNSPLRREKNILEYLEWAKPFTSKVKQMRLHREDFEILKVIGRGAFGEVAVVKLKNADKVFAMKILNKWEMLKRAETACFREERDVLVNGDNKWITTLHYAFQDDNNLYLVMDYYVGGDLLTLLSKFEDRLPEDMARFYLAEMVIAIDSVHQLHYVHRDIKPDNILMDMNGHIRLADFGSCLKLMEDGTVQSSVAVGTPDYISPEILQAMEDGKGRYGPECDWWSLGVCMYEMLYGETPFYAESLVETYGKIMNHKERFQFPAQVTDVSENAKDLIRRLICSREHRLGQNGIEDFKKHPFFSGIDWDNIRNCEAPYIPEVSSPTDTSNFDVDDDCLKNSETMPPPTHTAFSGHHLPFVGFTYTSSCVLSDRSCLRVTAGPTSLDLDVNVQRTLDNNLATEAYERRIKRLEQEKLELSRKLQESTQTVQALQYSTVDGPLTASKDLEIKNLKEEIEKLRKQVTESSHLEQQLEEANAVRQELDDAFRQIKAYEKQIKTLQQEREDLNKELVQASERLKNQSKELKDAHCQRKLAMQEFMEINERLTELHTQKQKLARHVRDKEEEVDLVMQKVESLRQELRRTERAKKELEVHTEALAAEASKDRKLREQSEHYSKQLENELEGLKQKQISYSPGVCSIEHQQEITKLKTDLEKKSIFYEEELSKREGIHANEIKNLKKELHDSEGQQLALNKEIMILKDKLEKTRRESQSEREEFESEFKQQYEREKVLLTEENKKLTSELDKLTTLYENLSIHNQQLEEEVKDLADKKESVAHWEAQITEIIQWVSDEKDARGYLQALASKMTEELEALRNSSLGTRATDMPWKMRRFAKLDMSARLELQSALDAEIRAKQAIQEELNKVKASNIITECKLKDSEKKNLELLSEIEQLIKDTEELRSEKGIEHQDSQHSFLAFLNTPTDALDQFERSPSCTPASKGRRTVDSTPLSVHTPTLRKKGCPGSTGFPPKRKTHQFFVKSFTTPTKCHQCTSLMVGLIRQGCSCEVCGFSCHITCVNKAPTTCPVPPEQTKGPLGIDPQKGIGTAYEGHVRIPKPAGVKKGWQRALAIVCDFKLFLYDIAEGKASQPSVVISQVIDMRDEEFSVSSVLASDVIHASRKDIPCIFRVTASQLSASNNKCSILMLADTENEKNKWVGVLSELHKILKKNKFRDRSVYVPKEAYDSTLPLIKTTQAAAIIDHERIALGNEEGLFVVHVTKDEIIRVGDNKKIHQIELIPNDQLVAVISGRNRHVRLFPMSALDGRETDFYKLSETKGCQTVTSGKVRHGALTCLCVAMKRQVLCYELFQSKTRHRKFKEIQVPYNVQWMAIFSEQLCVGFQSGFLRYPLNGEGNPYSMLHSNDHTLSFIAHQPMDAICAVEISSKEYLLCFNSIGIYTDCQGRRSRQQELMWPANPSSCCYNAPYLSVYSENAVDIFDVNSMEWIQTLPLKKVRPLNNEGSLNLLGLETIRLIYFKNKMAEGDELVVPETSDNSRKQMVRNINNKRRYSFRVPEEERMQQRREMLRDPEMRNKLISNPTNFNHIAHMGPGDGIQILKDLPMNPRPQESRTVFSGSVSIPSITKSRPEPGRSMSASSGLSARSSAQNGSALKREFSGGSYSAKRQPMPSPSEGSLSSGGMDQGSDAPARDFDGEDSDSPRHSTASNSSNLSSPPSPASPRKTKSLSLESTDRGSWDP
Sequence of UniProt O75676 (O75676 whole entry, looked up): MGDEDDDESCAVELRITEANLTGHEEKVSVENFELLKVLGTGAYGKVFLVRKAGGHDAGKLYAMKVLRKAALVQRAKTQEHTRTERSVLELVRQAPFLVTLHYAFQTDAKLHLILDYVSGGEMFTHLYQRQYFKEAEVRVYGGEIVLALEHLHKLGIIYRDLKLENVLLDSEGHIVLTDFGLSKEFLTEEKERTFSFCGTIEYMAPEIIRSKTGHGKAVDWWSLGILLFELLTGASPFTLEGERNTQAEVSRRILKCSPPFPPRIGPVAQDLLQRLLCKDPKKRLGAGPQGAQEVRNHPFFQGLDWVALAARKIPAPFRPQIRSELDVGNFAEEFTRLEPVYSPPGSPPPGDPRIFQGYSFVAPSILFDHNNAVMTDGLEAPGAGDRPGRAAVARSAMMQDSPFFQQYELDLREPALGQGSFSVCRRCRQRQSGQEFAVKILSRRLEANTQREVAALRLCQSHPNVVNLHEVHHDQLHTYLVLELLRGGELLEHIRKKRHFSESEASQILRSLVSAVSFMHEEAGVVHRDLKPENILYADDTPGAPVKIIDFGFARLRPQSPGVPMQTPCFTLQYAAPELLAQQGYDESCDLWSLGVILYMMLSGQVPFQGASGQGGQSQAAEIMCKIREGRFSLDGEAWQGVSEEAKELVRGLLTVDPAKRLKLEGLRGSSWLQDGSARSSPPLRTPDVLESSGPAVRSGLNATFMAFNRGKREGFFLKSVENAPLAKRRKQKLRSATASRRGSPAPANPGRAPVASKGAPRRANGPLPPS

Structure (SMILES) | inhibition [1] | inhibition [2] | inhibition [3] | inhibition [4] | inhibition [5] | inhibition [6] | inhibition [7] | inhibition [8] | inhibition [9] | inhibition [10] | inhibition [11] | inhibition [12] | inhibition [13] | inhibition [14] | inhibition [15] | inhibition [16] | inhibition [17] | inhibition [18] | inhibition [19] | inhibition [20]
COc1ccccc1C1=C(Nc2ccccc2)C(=O)NC1=O | 0.17% | 1.46% | 2.59% | 2.36% | 1.17% | 3.11% | 4.81% | 6.4% | 1.66% | -0.25% | 1.35% | 17.1% | 0.99% | 6.81% | -3.39% | -2.33% | 2.05% | 3.19% | 0.95% | 2.68%
Fc1ccc(Oc2nccc(-c3c(-c4ccc(F)cc4)ncn3C3CCNCC3)n2)cc1 | -2.29% | -1.29% | -2.94% | -3.14% | -2.48% | 0.71% | 4.21% | 7.29% | 10.4% | 0.76% | 3.57% | 5.65% | 0.07% | 1.76% | 2.27% | 2.83% | 1.95% | 4.12% | 2.16% | 3.8%
Fc1ccc(-c2ncn(C3CCNCC3)c2-c2ccnc(Oc3cccc(F)c3)n2)cc1 | 0.89% | 0.08% | 0.95% | 2.49% | 1.11% | 6.35% | 5.11% | 4.97% | 9.74% | 1% | 3.46% | 5.27% | 0.49% | 3.94% | -2.45% | -3.65% | 4.21% |  | 3.15% | 4.35%
NC(=O)CCc1ccccc1Oc1nccc(-c2c(-c3ccc(F)cc3)ncn2C2CCNCC2)n1 | -2.24% | -1.9% | -3.59% | -1.1% | -1.94% | 0% | -3.18% | 0.59% | 2.82% |  | -0.52% | -0.89% | 0.43% | -0.31% | -0.92% | -0.96% | -1.62% | -1.85% | -1.25% | -0.66%
Fc1ccc(-c2ncn(C3CCNCC3)c2-c2ccnc(Oc3cccc(C(F)(F)F)c3)n2)cc1 | 2.32% | 1.68% | 2.55% | 3.94% | 1% | 6.2% | 3.08% | 3.94% | 10.1% | 2.14% | -3.17% | 0.21% | 0.54% | -0.47% | 4.14% | 2.67% | 3.47% | 1.93% | 1.59% | 2.87%
Fc1ccc(-c2ncn(C3CCNCC3)c2-c2ccnc(Oc3ccc(Cl)cc3)n2)cc1 | -0.28% | -0.24% | 0.02% | 0.86% | -0.38% | 5.21% | -0.19% | 0.67% | 6.72% | -5.01% | -1.47% | 2.44% |  | 1.34% | -7.21% | -8.03% | 0.6% | 0.3% | 0.15% | 1.78%
O=C1NC(=O)C(c2ccccc2Cl)=C1Nc1cc(Cl)c(O)c(Cl)c1 | 0.78% | 0.48% | 0.71% | 1.42% | 0.46% | 1% | 5.36% | 12% | 1.91% | 3.62% | -0.61% | 1.91% | -0.85% | 0.79% | 2.49% | 4.05% | 1.22% | 2.51% | -0.16% | 0.28%
O=C(O)c1ccc(Oc2nccc(-c3c(-c4ccc(F)cc4)ncn3C3CCNCC3)n2)cc1 | 1.59% | 2.05% | 1.18% | 0.93% | 1.33% | 5.64% | 3.68% | 4.13% | 9.55% | 1.88% | 6.62% | 6.33% | 0.85% | 2% | 4.95% | 5.6% | 1.09% | 3.62% | 1.55% | 3.29%
COc1ccccc1Oc1nccc(-c2c(-c3ccc(F)cc3)ncn2C2CCNCC2)n1 | 0.38% | 0.36% | 2.55% | 1.54% | 1.9% | 1.95% | 1.78% | 3.3% | 9.96% | 3.73% | -0.63% | -0.35% | 1.16% | 0.68% | -3.29% | -4.97% | 3.92% | 6.31% | 2.09% | 2.74%
CS(=O)(=O)c1ccc(Oc2nccc(-c3c(-c4ccc(F)cc4)ncn3C3CCNCC3)n2)cc1 | 1.93% | 1.34% | 1.2% | 2.26% | 0.65% | 3.92% | 1.17% | 2.47% | 9.09% | 2.06% | -7.33% | -0.9% | -0.83% | 0.05% | 1.74% | -1.62% | 2.75% | 1.09% | 2.04% | 2.47%
O=C1NC(=O)C(c2cccc([N+](=O)[O-])c2)=C1Nc1cc(Cl)c(O)c(Cl)c1 | 0.88% | 0.14% | -0.56% | 1.26% | 0.12% | 0.95% | -1.83% | 0.24% | 6.8% | 4.27% | -1.78% | -0.25% | 0.3% | 0.29% | 0.56% | -1.6% | 2.64% | 1.45% | 1.1% | 0.65%
Cc1cccc(Oc2nccc(-c3c(-c4ccc(F)cc4)ncn3C3CCNCC3)n2)c1C | 0.36% | 0.41% | 1.92% | 3.53% | 1.48% | 1.35% | -0.55% | 1.29% | 8.84% | 3% | -2.66% | 2.29% | -0.78% | -0.41% | 8.66% | 7.4% | 2.54% | 2.03% | 1.2% | 1.34%
CC(C)(C)c1ccc(Oc2nccc(-c3c(-c4ccc(F)cc4)ncn3C3CCNCC3)n2)cc1 | 1.09% | 0.59% | 1.29% | 2.02% | 0.81% | 3.88% | 2.23% | 4.45% | 8.22% | 0.89% | -2.99% | 1.46% | -0.83% | 0.64% | 0.69% | -1.82% | 2.15% | 1.91% | 1.65% | 1.56%
O=C1NC(=O)C(c2ccccc2)=C1Nc1ccccc1 | 0.9% | 1.31% | 2.55% | 2.42% | 1.12% | 3.13% | 6.74% | 8.58% | 5% | 9.97% | -0.01% | 0.95% | 0.3% | 2.08% | -1.64% | -0.66% | 3.55% | 3.97% | 1.95% | 2.47%
